Measured values as given in the supplement of paper PMC11417369.
± gives the standard deviation of the averaged measurements. The list shows a part of the results.

What follows are sequences tested on PfAP2-G AP2 domain (GST-tagged) (assay: gcPBM binding intensity (ln(normalized median fluorescence intensity)); higher = stronger DNA binding).
Procedure, shortened: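 For binding intensity, the highest Masliner-normalised natural-log median intensity across replicate spots of either probe orientation was taken. Protein bound to the array was stained with Alexa488 anti-GST antibody and scanned at 488 nm. The protein, GST-tagged P. falciparum DNA-binding domains from E. coli at about 25 μg on average, had been applied for 1 h to an Agilent 4 × 180k array of primer-extended double-stranded 36-bp intergenic genomic probes and negative controls.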

| Sequence | gcPBM binding intensity (ln) |
| --- | --- |
| ATAAAAAAAAAAAATACACACATATATATATATATA [CACACA_site1709] | 9.96 ± 0.47 |
| GTATATATCTCAGAGCATAATAGTATAATTCGGTCA [CACACA_negctrl_site876] | 9.98 ± 0.18 |
| AATTATTTTAGAAACACACAAATTAGAAAAAACATA [CACACA_site7673] | 10.2 ± 0.24 |
| ATTAAAACAAAATGTACACACATATAATTTAATGAC [CACACA_site878] | 11.2 ± 0.81 |
| TTTATCTTTTTTTGTTGTACAGATGTTTATATTTTA [XGTACX_site4065] | 11.2 ± 0.68 |
| AATATATATATAAATAGTACATATAAAGAGAATTTT [XGTACX_site3168] | 11.1 ± 0.52 |
| CAGAAATATTCTTATACACACTGTTCTTATATTCCT [CACACA_site4318] | 10.15 ± 0.049 |
| TGATATTTCATCATAGTGCAATATGGCATATAAATA [GTGCAC_site9433] | 9.92 ± 0.14 |
| TGTAATAAACTACTTTTTTTTTTTTTTTTTTTTTTT [CACACA_negctrl_site1021] | 11 ± 0.34 |
| AATATCAAAATAACATGTACATGTTATATTTTATTT [XGTACX_site5891] | 11 ± 0.52 |
| AATAACATTATTTTATGTACACATGAAAAATAAAAT [XGTACX_site4657] | 11.5 ± 0.92 |
| ATTTATTAATCATATACACACATATATTTGTATTTA [CACACA_site1336] | 9.88 |
| TTATAGACATATATAGGTACACATATTTTCAATCCC [XGTACX_site8230] | 11.3 ± 0.77 |
| ACCTCATAATATTTAACACACAAAATTATCTGTATG [CACACA_site5015] | 9.98 ± 0.028 |
| TATTTTTTTAAAATAGGTACACAATCAAACATTTAT [XGTACX_site8785] | 11.4 ± 0.97 |
| TTTAAATAAAAATGGAGTACTCTAAAAAAAAAAAAA [XGTACX_site1233] | 11.4 ± 0.88 |
| CGTCCAAAATATCCTTCACACACGAACAGTTTCATT [CACACA_site2729] | 10.14 ± 0.078 |
| GTGATTTCTATGAATTGTACTTAAATATAGTTATAT [XGTACX_site231] | 11.1 ± 0.68 |
| TTTATATAATATTCTACACACCAACAACAAACATAT [CACACA_site4478] | 10.5 ± 0.4 |
| ATATATATATATAATACACACATAAATGAATATATA [CACACA_site316] | 10.1 ± 0.48 |
| GCATTGATCAAACATACACACATGGTTAATAAAAAT [CACACA_site2085] | 10.3 ± 0.35 |
| GTAGTACATTCTAGAATACACACCTATATATATATA [CACACA_site522] | 11.2 ± 0.98 |

| Sequence | gcPBM binding intensity (ln) |
| --- | --- |
| TGAAATGAAAGAACAGCACACATATATATTATATAT [CACACA_site8613] | 9.73 ± 0.25 |
| TATATTTTTTAAAAAAGTACAAAGTAATTATTGATT [XGTACX_site2420] | 11.3 ± 0.83 |
| ATATGAAAAACTTCATGTACTTATTATAAAATATAA [XGTACX_site2725] | 11.2 ± 1 |
| CTTTTTTTTTTGTATTGTACTTTATTTTTACATCGT [XGTACX_site2918] | 11.5 ± 0.95 |
| GATTACCTTTTTTTTTTTTTTTTTTTTTTTTTTTTC [CACACA_negctrl_site147] | 9.595 ± 0.092 |
| ATAAAAAAAAATATATGTACATATATAAATTGATAT [XGTACX_site7409] | 11.3 ± 0.79 |
| ATTCTAATTTTATGAAACGATTATTTTGAATTCATT [XGTACX_negctrl_site578] | 9.73 ± 0.085 |
| ATTTTTAATTTTTTCACACATATATTTAAAATAAAA [CACACA_site4799] | 9.99 ± 0.21 |
| AAAAAAAAAAAATGTGCACACGCGTACAGACAAAAA [CACACA_site2005] | 11.8 ± 0.99 |
| TAAAAAGTACATTATTCATGGCCTATTACATTTTTT [GTGCAC_negctrl_site282] | 11.4 ± 0.87 |
| ACACAAAAATAGTTTTTTATATTGTTAACCTTATAT [XGTACX_negctrl_site123] | 10.05 ± 0.099 |
| ATAATATATATGAAATGTACATAAATTTAATGCGAC [XGTACX_site5394] | 11.1 ± 0.54 |
| ATATTTTACATATTTGCACACATATATTTAAATACA [CACACA_site4628] | 10.2 ± 0.26 |
| ATTTATGTTATTGTATGTACACAATATAATGTTATT [XGTACX_site5657] | 11.4 ± 0.91 |
| ATTCTACACGCACATACACACATATAAATATAAATA [CACACA_site7582] | 10.4 ± 0.21 |
| AAAAAAAAATATATATATATATATATATAATAAAAA [CACACA_negctrl_site639] | 9.48 ± 0.27 |
| TATGTTTTATATAAGATGCACTTTTGTTATGCTTCA | 9.955 ± 0.092 |
| ATGTGCACATGTAGAAGTACTTTTTCTTAAAATACT [XGTACX_site8341] | 11.3 ± 0.7 |
| AAATTATTGTAAAATAGTACAGTGAAACATAAAGTT [XGTACX_site589] | 11.3 ± 0.8 |
| CAAATACACGGACACACACACACAAAAAAAAAAAAA [CACACA_site6385] | 11.4 ± 1.2 |
| AAGAGAAATGGGCACACACACACATATTATAGATAT [CACACA_site6828] | 10.6 ± 0.44 |
| TATAAAAAATTCAATACACACCATATATAAATATAT [CACACA_site6060] | 9.885 ± 0.035 |

| Sequence | gcPBM binding intensity (ln) |
| --- | --- |
| TGATTCACTATAGTAGTGCATATTATATATATATAT [GTGCAC_site9975] | 10.3 ± 0.4 |
| TATAATAATTCATAATGTACTTTTATCAAAAAAGTA [XGTACX_site6868] | 11.2 ± 0.79 |
| TAAATACAAGTAAAAAGTACAGAAAAATTATATATA [XGTACX_site1758] | 11.4 ± 0.84 |
| TTTATTTGGACATATACACACTTAAATATGTTTATT [CACACA_site6021] | 10.5 ± 0.28 |
| TTTATTTTGTTTTCTTGTACATAAATAATTACATAT [XGTACX_site4227] | 11 ± 0.66 |
| TTAATTACACAAAAAAGTACTTGATATTGTTTATTA [XGTACX_site3449] | 11.1 ± 0.74 |
| ATATAATCAACTGCAAAGGTTTAAAAGGAAAAAATA [CACACA_negctrl_site989] | 10 ± 0.13 |
| AATATTTACCAGAAAATAAAAATATGTATATATATA [CACACA_negctrl_site351] | 9.94 ± 0.3 |
| AAAAAACGCACTCGTACACACATATTTTCTTTCTAA [CACACA_site3089] | 11.4 ± 0.87 |
| ATTTTTATGTCTTTCTATAAATCGAAAATATACATA [CACACA_negctrl_site477] | 9.95 ± 0.17 |
| TTCCTTTAACCCTGCACACATACATACATTTATATG [CACACA_site3953] | 10.4 ± 0.23 |
| ATATACAACTAAAGAACACACATCATTGTTCATTGG [CACACA_site3681] | 9.85 ± 0.15 |
| TTTTTATTCAACAAAAATATCAAACATAATTATAAA [CACACA_negctrl_site616] | 9.935 ± 0.064 |
| AATATTTATATTTACACACACATAATACATATATGT [CACACA_site33] | 10.2 ± 0.13 |
| TAAAATAGAAATATATGTACATATATATATGTATAT [XGTACX_site4134] | 11 ± 0.47 |
| CGATATTCTAAGGATAGTACATAATAAAATAGAGTA [XGTACX_site4224] | 11 ± 0.6 |
| ATTTATATTTTTTAATGTACATTTATATGTATACAA [XGTACX_site4555] | 11 ± 0.66 |
| GTTCTAAAAGTTAATGCATGTTATAAGTTTCCCTCT [TGCATGCA_site94] | 9.91 ± 0.028 |
| TATTTCAAAATATGGGTGCAGTTCTTCATGATATAT [GTGCAC_site9658] | 10.3 ± 0.26 |
| AGTAATAAAAGTAGAAGTACAATACTTCAAAGATAT [XGTACX_site8562] | 11.6 ± 0.93 |
| ATTAAACATAAATATGCACACATATACATATATTCA [CACACA_site8850] | 9.97 ± 0.16 |
| ATGTATATATTTACGTGTACATATTCATGTGATATC [XGTACX_site5871] | 11.5 ± 1.2 |

| Sequence | gcPBM binding intensity (ln) |
| --- | --- |
| TGCTATTTTTTCCTTTTTTTGTATCACAATCATATA [CACACA_negctrl_site1576] | 10.1 ± 0.21 |
| TTATACTTTGGGTGGTGTACTATATTATGCTTATAA [XGTACX_site1106] | 11.4 ± 0.92 |
| AGATATATAAATATTACACACTATATATCTATTTAT [CACACA_site6466] | 9.72 ± 0.18 |
| ATTTGCCCATTTAATTAACACACAAATGTTTATATT [CACACA_site8145] | 10.3 ± 0.2 |
| TTTATTTATTAATACACACACACACCCAGACAAAAT [CACACA_site4292] | 10.7 ± 0.6 |
| TATCTTTTTACAATAGTGCATATGTTATCATTAATA [GTGCAC_site9489] | 10.07 ± 0.078 |
| ATTATATACATTTTAGTGCATTACATAATAATATAA [GTGCAC_site9836] | 10.2 ± 0.24 |
| GTATGCATTATATACACACATACATTTATATATTCT [CACACA_site115] | 10 ± 0.014 |
| TTTCTTTTTTGATGCGTGCACATTTGTTTATTTTTC [GTGCAC_site9792] | 10.4 ± 0.2 |
| ACTATTTAATATAGGGTGCAACTTTTTCAAGTAAAT [GTGCAC_site9853] | 10.4 ± 0.42 |
| ATTCATTTTATTTTTTCACACACACCGATATATATA [CACACA_site9097] | 10.2 ± 0.25 |
| ACCCCCATATTCTTTTTACACACTTGAATAAAAAAT [CACACA_site8319] | 11.1 ± 0.63 |
| ATTTTTCAATTATGTAGTACATTGATATTTTCATTT [XGTACX_site5369] | 11.4 ± 0.89 |
| ATTTTTATTCTTATTACACACCTAAATATAAAATAT [CACACA_site2064] | 10.2 ± 0.2 |
| TTTATATTTATATTGGGTACATAAAAAGCTTGAAAT [XGTACX_site8248] | 11.4 ± 1.1 |
| TGTGTTCATATATGCACACGCATATATATTATTGTT [CACACA_site3822] | 9.94 ± 0.014 |
| TGTGTCCATTGAACAGTGCAATAAAAACTTTTACAT | 10.6 ± 0.41 |
| ATAAATATGGAGCACACACACATAAACATACATATA [CACACA_site421] | 10.4 ± 0.33 |
| AAAAAAAAAAAACACACACACACACCGATACATACA [CACACA_site8849] | 10.13 ± 0.099 |
| TTTTTTTTTTTGTGGTGTACCTTTATTTCCTTTTAG [XGTACX_site6934] | 11.3 ± 1.1 |
| ATACATATATATATATGTACATATGCACATATATAC [XGTACX_site7209] | 11.1 ± 0.62 |
| AAGAAAAAAGGGGACAAGGCATATCTATATATACAT [TGCATGCA_negctrl_site172] | 10.7 ± 0.52 |
